From patent US5792444A, “Labeled chemotactic peptides to image focal sites of infection or inflammation” (The General Hospital Corporation, priority 1993, dated 1998)
Read-outs that look alike come from different tables or passages of the source. For some of these results: Not every detail of the peptide structures is certain; ends, links or a residue may be inferred. For some of these results: At least one compound was matched to its structure with a doubt left. *1 amine or outer side, *2 acyl side, *3 side chain or, on linkers, in order; H or OH if unused. Where a SMILES comes first, the peptide text is derived from it. Side-chain parts run from the residue outwards. The star is where a group is joined. DTPA = O=C(O)CN(CCN(CC(=O)O)CC(=O)O)CCN(CC(=O)O)CC(=O)*; Isobutyloxycarbonyl = CC(C)COC(=O)*; HYNIC = NNc1ccc(C(=O)*)cn1; CO = O=C([*:1])[*:2]; NHiPr = CC(C)N*

Columns and labels:
[1] = tested on: neutrophils / human umbilical vein endothelial cells; assay: Adhesion agonist (neutrophil-endothelial cell adhesion assay); type: cell-based
Procedure: (§1) The unconjugated peptide iBoc-MLFK was evaluated in a neutrophil-endothelial cell adhesion assay. In this assay, neutrophils (5×10^5) labeled with 5-carboxyfluorescein diacetate were added into wells of a 48 well dish containing confluent human umbilical vein endothelial cells. The iBoc-MLFK peptide was added at a concentration of 10 μM 10 min prior to stimulation of neutrophils with 30 nM ForMLF. Percent adhesion was determined by washing off unattached neutrophils after an incubation period of 25 minutes. This peptide inhibited adhesion by 66% at this concentration. Subsequently, concentrations between 0.1-3.0 μM were examined. […] Inhibition of adhesion would reduce the infiltration of leukocytes, such as neutrophils, to a diseased site, thereby limiting the tissue damage associated with inflammation.
(§2) The procedure of Example 5 was repeated for additional CP's within the scope of the present invention. The results are shown in Table I. In the table, MPO is myeloperoxidase assay, a "-" sign means there was no effect at 30 μM, a "+" sign means there was a positive effect at 30 μM, and "N.T." means "Not

[2] = tested on: neutrophils / human umbilical vein endothelial cells; type: cell-based; conditions: read-out: Adhesion Antagonist IC50
Procedure: as §1, §2

neutrophils [3] = molecular target: T1, neutrophils (Homo sapiens, UniProt P21462); assay: Binding (Table I, Cell Biology Data); conditions: read-out: Binding EC50
T1 sequence (P21462 1-350): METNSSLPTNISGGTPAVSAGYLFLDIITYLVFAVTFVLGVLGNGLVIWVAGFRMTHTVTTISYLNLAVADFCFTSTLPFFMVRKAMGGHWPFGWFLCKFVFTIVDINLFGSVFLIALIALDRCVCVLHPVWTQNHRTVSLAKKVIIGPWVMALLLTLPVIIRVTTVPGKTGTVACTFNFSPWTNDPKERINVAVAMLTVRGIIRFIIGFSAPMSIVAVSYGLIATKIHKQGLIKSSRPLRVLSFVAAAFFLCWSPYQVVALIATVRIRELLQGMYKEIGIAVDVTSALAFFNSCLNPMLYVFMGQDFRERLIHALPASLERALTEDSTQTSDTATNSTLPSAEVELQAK
From the text: Three non-DTPA derivatized peptides were included in the assay for comparison.

neutrophils [4] = molecular target: T1, neutrophils; assay: Free radicals agonist (neutrophil free radical chemiluminescence); type: cell-based; conditions: for EC50: read-out: Free Radicals Agonist EC50
neutrophils [5] = molecular target: T1, neutrophils; assay: MPO (myeloperoxidase assay) release; type: cell-based
Procedure: as §2

neutrophils [6] = molecular target: T1, neutrophils; assay: Free radicals antagonist (inhibition of ForMLF stimulated free radical chemiluminescence); type: cell-based

CSCC[C@H](NC(=O)c1ccccc1)C(=O)N[C@@H](CC(C)C)C(=O)N[C@@H](Cc1ccccc1)C(=O)O [Example 78, N-benzoyl-MLF]
EC50 ([1]; class symbol): > 30 µM
IC50 [2]: 8.8 µM

CSCC[C@H](NC(=O)NC(C)C)C(=O)N[C@@H](CC(C)C)C(=O)N[C@@H](Cc1ccccc1)C(=O)NCCCNC(=O)c1ccc(NN)nc1 [Example 30, N-i-propylurea-MLF-propanediamine-SHNH]
EC50 (neutrophils [3]): 9 µM
EC50 (neutrophils [4]): > 100 µM
EC50 (neutrophils [5]): 2.2 µM

CSCC[C@H](NC(=O)Nc1ccc(C)cc1)C(=O)N[C@@H](CC(C)C)C(=O)N[C@@H](Cc1ccccc1)C(=O)O [Example 87, P-tolylurea-MLF]
EC50 [1]: 0.003 µM

CSCC[C@H](NC(=O)c1ccc[nH]1)C(=O)N[C@@H](CC(C)C)C(=O)N[C@@H](Cc1ccccc1)C(=O)O [Example 25, Pyrrole-M--L--F]
EC50 (neutrophils [3]): 1.7 µM
EC50 (neutrophils [4]; class symbol): > 30 µM
IC50 (neutrophils [6]): 9 µM

CSCC[C@H](NC(=O)OCC(C)C)C(=O)N[C@@H](CC(C)C)C(=O)N[C@@H](Cc1ccccc1)C(=O)N[C@@H](CCCCNC(=O)CN(CCN(CCN(CC(=O)O)CC(=O)O)CC(=O)O)CC(=O)O)C(=O)O [Example 42, isobutyloxycarbonyl-methionyl-leucyl-phenylalanyl-N-diethylenetriaminepentacetyl-lysine] (Isobutyloxycarbonyl-MLFK(DTPA)-OH)
agonist activity (neutrophils [4]): do not demonstrate any agonist activity
antagonism of ForMLF stimulated release of free radicals from neutrophils (neutrophils [6]): antagonize
inhibition of ForMLF stimulated chemiluminescence response (neutrophils [6]; 1 μM peptide, 10 nM ForMLF, […] luminol): completely inhibited

CSCC[C@H](NC(=O)Nc1ccc(Cl)cc1)C(=O)N[C@@H](CC(C)C)C(=O)N[C@@H](Cc1ccccc1)C(=O)O [Example 85, N--N-4-chlorophenylurea-MLF]
EC50 [1]: < 0.001 µM

CSCC[C@H](NC(=O)NC(C)C)C(=O)N[C@@H](CC(C)C)C(=O)N[C@@H](Cc1ccccc1)C(=O)N[C@@H](CCCCNC(=O)[C@H](CC(=O)O)NC(=O)c1ccc(NN)nc1)C(=O)O [Example 29, i-proplyurea-MLF--Lys--Asp--SHNH] ({NHiPr-CO}-MLFK([Asp-HYNIC])-OH; C-terminus assumed)
EC50 (neutrophils [3]): 4 µM
EC50 (neutrophils [4]): > 100 µM
EC50 (neutrophils [5]): 0.25 µM

NNc1ccc(C(=O)O)cn1 [Example 26, Hynic]
EC50 (neutrophils [3]): > 100 µM
EC50 (neutrophils [4]): > 100 µM

CSCC[C@H](NC(=O)OCC(C)C)C(=O)N[C@@H](CC(C)C)C(=O)N[C@@H](Cc1ccccc1)C(=O)N[C@@H](CCCCN)C(N)=O [Example 41, iBoc--MLFK] (Isobutyloxycarbonyl-MLFK-NH2)
agonist activity (neutrophils [4]): do not demonstrate any agonist activity
antagonism of ForMLF stimulated release of free radicals from neutrophils (neutrophils [6]): antagonize

CSCC[C@H](NC(=O)NC(C)C)C(=O)N[C@@H](CC(C)C)C(=O)N[C@@H](Cc1ccccc1)C(=O)NCCCNC(=O)[C@H](CC(=O)O)NC(=O)c1ccc(NN)nc1 [Example 31, i-propylurea-MLF-n-propyldiamine-Asp--SHNH]
EC50 (neutrophils [3]): 4.5 µM
EC50 (neutrophils [4]): 2 µM
EC50 (neutrophils [5]): 0.4 µM

CCCCC(=O)N[C@@H](CCSC)C(=O)N[C@@H](CC(C)C)C(=O)N[C@@H](Cc1ccccc1)C(=O)O [Example 79, n-butyl-amidyl-MLF]
EC50 (neutrophils [3]): 0.12 to 7 µM
EC50 (neutrophils [4]; class symbol): > 30 µM
IC50 (neutrophils [6]): 20 µM

CSCC[C@H](NC(=O)Nc1cccc(C)c1)C(=O)N[C@@H](CC(C)C)C(=O)N[C@@H](Cc1ccccc1)C(=O)O [Example 88, M-tolylurea-MLF]
EC50 ([1]; class symbol): > 30 µM
IC50 [2]: 4.5 µM
